Results from PubChem BioAssay AID485294 (National Center for Advancing Translational Sciences (NCATS), 2010).
Among all 370,000 compounds or so, about 150 (0.041%) were called active. Inconclusive results, whose numbers are uncertain, are shown with a selection of clear calls. Calls come from the whole dose curve; as a rule, active = well fitted inhibition curve with a large enough effect; inconclusive = small, poorly fitted or top-dose-only effect; inactive = flat fitted curve, though single readings scatter. No potency is given beside an inconclusive call; the fits are too rough.

Molecular target: Beta-lactamase (Escherichia coli (strain K12)) (UniProt P00811)
Assay: qHTS Inhibitors of AmpC Beta-Lactamase (assay with detergent); note: nearly all actives have a fitted effect of over 25% in size;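 for activity change, negative = inhibition: 0% = no-compound wells and -100% = no-enzyme wells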
Conditions: AmpC hydrolysis of nitrocefin, absorbance 480 nm, 0.01% Triton; activity change, negative = inhibition: at 114 µM (top of the series)
How it was run: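 20 mM phosphate pH 7.0 + 0.01% (detergent screen) or 0.0001% Triton X-100; 5.3 nM AmpC reagent; cpd preinc 15 min RT; nitrocefin (800 uM stock) to start; A480 q20 s × 4 min; Activity was normalised to no-enzyme and no-compound control wells.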
Potency is the fitted concentration of half-maximal effect; tags give direction and shape of the fitted curve.

Sequence of UniProt P00811 (P00811 whole entry, looked up): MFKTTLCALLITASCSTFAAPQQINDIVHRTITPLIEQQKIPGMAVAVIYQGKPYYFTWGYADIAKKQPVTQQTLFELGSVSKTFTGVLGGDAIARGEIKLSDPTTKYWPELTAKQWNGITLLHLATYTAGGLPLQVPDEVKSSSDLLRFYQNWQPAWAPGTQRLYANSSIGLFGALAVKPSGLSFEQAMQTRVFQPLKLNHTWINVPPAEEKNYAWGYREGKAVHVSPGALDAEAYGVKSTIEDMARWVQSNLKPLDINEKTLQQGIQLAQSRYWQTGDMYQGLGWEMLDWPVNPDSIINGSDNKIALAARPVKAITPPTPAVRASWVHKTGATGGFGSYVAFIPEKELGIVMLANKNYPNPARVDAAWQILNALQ

Compound | activity change, negative = inhibition | Potency
C/C(=N\NC(=O)C1CC1)c1ccc(Cl)c(Cl)c1 | inactive: -3.32% | –
Cc1ccc([N+](=O)[O-])cc1NC(=S)NC(=O)CC(C)(C)C | inactive: 4.64% | –
Cc1cc(C)n2nc(N)c(N=Nc3ccccc3)c2n1 | – | inconclusive [inhibitor, partial curve, poor fit]
COc1ccc(-n2c(Cc3cc(=O)[nH]c(=O)[nH]3)nnc2SCC(=O)NC2CCCC2)cc1 | – | inconclusive [inhibitor, full curve, poor fit]
CCOC(=O)C1=C(COC(=O)CNC(=O)c2cc(OC)c(OC)c(OC)c2)NC(=O)NC1C (stereo not drawn) | – | inconclusive [inhibitor, full curve]
O=C(CCl)Oc1ccc2occ(C(=O)c3cccs3)c2c1 | – | inconclusive [inhibitor, full curve, poor fit]
O=C(OC(C(=O)NC1CCCCC1)c1ccc(C(F)(F)F)cc1)c1ccco1 (stereo not drawn) | – | inconclusive [inhibitor, full curve, poor fit]
CC(/C=N/NC(=O)c1cc(C(C)(C)C)[nH]n1)=C\c1ccccc1 | – | inconclusive [inhibitor, partial curve]
Cc1ccc2oc(=O)c3cnn(CC(=O)NC4CCCCC4C)c3c2c1 (stereo not drawn) | – | inconclusive [inhibitor, full curve, poor fit]
CC(OC(=O)Cc1ccccc1[N+](=O)[O-])C(=O)Nc1ccc(Cl)cn1 (stereo not drawn) | – | inconclusive [inhibitor, full curve, poor fit]
Nc1ccc(Br)cc1C(=O)O | inactive: -10.7% | –
O=C(NCCc1ccccc1)c1n[nH]c2ccccc12 | – | inconclusive [inhibitor, full curve, poor fit]
CCCN1Cc2cccc(C(=O)Nc3ccc4c(c3)OCCO4)c2C1=O | – | inconclusive [inhibitor, full curve, poor fit]
COc1ccc(S(=O)(=O)Cc2ccc(C(=O)NCc3cccs3)o2)cc1 | – | inconclusive [inhibitor, partial curve, poor fit]
COc1ccc(OC)c(C(=O)CSc2nc3c(c(=O)n(C)c(=O)n3C)n2C(C)C)c1 | – | inconclusive [inhibitor, partial curve, poor fit]
COc1ccc(Nc2nnc(SC(C(=O)Nc3cc(C)ccc3C)c3ccccc3)s2)cc1 (stereo not drawn) | – | inconclusive [inhibitor, single point]
C=CCn1c(N)c(-c2nc3ccccc3n2C)sc1=S | – | inconclusive [inhibitor, single point]
COc1ccc(OC)c(NC(=O)c2cc3cc4ccc(C)cc4nc3s2)c1 | inactive: 11.3% | –
C/C(Cn1nnc([N+](=O)[O-])n1)=N\NC(=O)c1cccc(Cl)c1 | inactive: -8.28% | –
Cc1ccc(CNC(=O)Cn2ccn(-c3cc(C)cc(C)c3)c(=O)c2=O)cc1 | inactive: -0.558% | –
COc1cc(/C=N/NC(=O)C(=O)Nc2ccccn2)ccc1O | – | inconclusive [inhibitor, full curve]
CSc1cccc(N2CC(C(=O)N(CC(C)C)c3c(N)n(Cc4ccccc4)c(=O)[nH]c3=O)CC2=O)c1 (stereo not drawn) | – | inconclusive [inhibitor, full curve]

Compound | activity change, negative = inhibition | Potency
O=C(OCc1nnc(-c2ccc([N+](=O)[O-])cc2)o1)C1CCN(C(=O)c2ccc(Cl)cc2)CC1 | – | inconclusive [inhibitor, full curve, poor fit]
CC(=O)N1c2ccc(S(=O)(=O)NCCC(=O)Nc3ccc(C)cc3Br)cc2CC1C (stereo not drawn) | inactive: 14.5% | –
O=C(O)c1ccc(CP(=O)(c2ccccc2)c2ccccc2)cc1 | – | inconclusive [inhibitor, partial curve, poor fit]
CCCN(CCC)c1ncnc2c1cnn2-c1ccc(OC)cc1 | – | inconclusive [inhibitor, single point]
CCOC(=O)C1CCN(S(=O)(=O)c2ccc3c(c2)NC(=O)C(C)S3)CC1 (stereo not drawn) | – | inconclusive [inhibitor, single point]
CCCCCCCn1c(=O)c(C(=O)OC)c(N)c2ccccc21 | inactive: 0.734% | –
CC1=C(C(=O)Nc2ccccc2)C(c2cccs2)n2nc(SCc3ccccc3)nc2N1 (stereo not drawn) | inactive: 5.48% | –
N=C1/C(=C/c2cccn2-c2cccc([N+](=O)[O-])c2)C(=O)N=C2SC=CN12 | – | inconclusive [inhibitor, partial curve]
Cc1ccc(-n2c(C)nnc2SCC(=O)N2CCc3ccccc3C2)cc1 | – | inconclusive [inhibitor, full curve, poor fit]
COCC(=O)Nc1c(C(=O)Nc2ccccc2OC)oc2ccccc12 | – | inconclusive [inhibitor, full curve]
COc1ccccc1NS(=O)(=O)c1cc(NC(=O)c2ccc(Cl)nc2)ccc1Cl | inactive: 4.03% | –
Cc1ccc(C(=O)NCC(=O)OCC(=O)Nc2ccc3[nH]c(=O)[nH]c3c2)cc1 | – | inconclusive [inhibitor, full curve, poor fit]
Clc1ccc(-c2cc(CN3CCOCC3)no2)cc1 | inactive: 5.11% | –
CC(=O)c1nc(-c2ccccc2)sc1C | – | inconclusive [inhibitor, full curve, poor fit]
Cc1ccc(C)c(Cn2cnc3ccccc3c2=O)c1 | inactive: 17% | –
CN(CC(=O)Nc1ccc(N2CCOCC2)cc1)Cc1c(O)ccc2ccccc12 | inactive: -1.65% | –
O=C(Nc1cc(C(F)(F)F)ccc1N1CCOCC1)c1c(F)c(F)c(F)c(F)c1F | – | inconclusive [inhibitor, full curve, poor fit]
O=C(NCc1ccccn1)c1nn(-c2ccccc2F)nc1CO | inactive: 26.1% | –
COc1ccc(-c2cc(=O)c3cc(OC)ccc3[nH]2)cc1 | – | inconclusive [inhibitor, partial curve, poor fit]
NC(=O)CC(NC(=O)Cc1ccc(Br)cc1)c1ccc(NCc2ccc(F)c(F)c2)c([N+](=O)[O-])c1 (stereo not drawn) | inactive: 3.78% | –
CCOCCCNC(=O)c1ccc2c(c1)N(Cc1ccccc1)C(=O)CS2=O (stereo not drawn) | – | inconclusive [inhibitor, full curve, poor fit]
